In all, about 150,000 compounds went through this assay and about 540 (0.36%) showed an effect of 50% or more. Some of the results follow.

From ChEMBL document CHEMBL4888484, “Replenishing the malaria drug discovery pipeline: Screening and hit evaluation of the MMV Hit Generation Library 1 (HGL1) against asexual blood stage Plasmodium falciparum ,using a nano luciferase reporter read-out” (2022) come the findings set out here.

In this assay the test system is Plasmodium falciparum. Briefly: Primary screen in NF54 nanoGlo assay, in single point, at 2uM, 72h; a lower Z score goes with more inhibition. The format is functional, Erythrocyte. As to conditions: timepoint 72 hour.
One may read the % Inhibition as the relative decrease from the control value, in per cent. In the case of `CN(CCO)C[C@H]1COCCN1C(=O)C1CCC1`, the “% Inhibition” value is recorded as -6% and the Z score is listed as 0.94.

Take `CC(=O)N1CCN(C(=O)c2csc(NC(=O)c3cccc(Cl)c3)n2)CC1`: the “% Inhibition” value is listed as -10% and the Z score was 1.67.

As to `CCC(CC)N(Cc1ccc2c(c1)OCO2)C(=O)[C@H]1C[C@H]2C=C[C@@H]1C2`, the “% Inhibition” value is 9% and the Z score is given as -1.11.

As for `Cc1cc([C@H](C)NCC(C)(C)C2(O)CCOCC2)cs1`, the “% Inhibition” value is listed as -1% and the Z score came out at 0.15.

In the case of `COc1ccc(CNC(=O)CN2CCc3c(ncn3C)C2)cc1OC`, the “% Inhibition” value turned out to be 2% and the Z score was -0.22.

As to `COCc1ccccc1C(=O)OCc1cn(C)nn1`, the “% Inhibition” value worked out at 24% and the Z score is -2.66.

In the case of `CCS(=O)(=O)Nc1cc(C)ccc1F`, the “% Inhibition” value is given as 30% and the Z score was -3.84.

In the case of `Cc1ccccc1-n1nc(C)c2[nH]c(-c3ccc(OCCO)cc3)nc21`, the “% Inhibition” value came out at 0% and the Z score was -0.06.

Take `CCc1c(NC(=O)[C@@H]2CN(CC)C[C@H]2c2cn(C)cn2)cnn1C1CCCC1`: the “% Inhibition” value is listed as 1% and the Z score was -0.19.

In the case of `O[C@H]1Cc2ccccc2[C@H]1Nc1ncc(Br)cn1`, the “% Inhibition” value is given as -31% and the Z score is on record as 3.67.

Take `COc1ccc(C#N)cc1CN(Cc1ccncc1)C1CC1`: the “% Inhibition” value is reported as 2% and the Z score is given as -0.24.

Consider `O=C(Cn1ncn2nc(-c3ccccc3)cc2c1=O)N1CCCCCC1`, for which the “% Inhibition” value was -32% and the Z score is 2.8.

Regarding `CCCNC(=O)N1CCC2(CCC(=O)N(C)CC2)CC1`, the “% Inhibition” value is reported as -12% and the Z score stood at 1.32.

`Clc1cccc2c(-c3nnnn3-c3ccc4ccccc4c3)c[nH]c12`: the “% Inhibition” value was -13% and the Z score was determined as 1.55.

On to `COCCC1(CNc2nc3ccccc3[nH]2)CC1`, for which the “% Inhibition” value is 0% and the Z score was 0.02.

`O=C(NC1CCN(c2cc(C3CC3)[nH]n2)CC1)C1CCC1`: the “% Inhibition” value was -8% and the Z score amounted to 1.03.

For `CCN(c1ccccc1)S(=O)(=O)c1cc(-c2nnc(C)o2)co1`, the “% Inhibition” value was -6% and the Z score worked out at 0.84.

In the case of `Cc1nn(C)cc1C(=O)N1CC[C@H](N2CCCCC2)C1`, the “% Inhibition” value is 6% and the Z score was -1.18.

`CNC(=O)c1n[nH]c2c1[C@@H](c1nc(-c3ccc(Cl)cc3)no1)CC(=O)N2`: the “% Inhibition” value is -4% and the Z score was found to be 0.54.

On to `CCc1ncnc(N[C@@H](C)c2nncn2CCOC)c1F`, for which the “% Inhibition” value was -8% and the Z score is on record as 1.64.

For the compound `CC[C@H](NC(=O)C1CCOCC1)c1ncccc1C`, the “% Inhibition” value was 5% and the Z score was -0.92.

As to `Cc1cc(NC(=O)[C@H](C)N2CCC(c3cn[nH]c3)CC2)no1`, the “% Inhibition” value is reported as -14% and the Z score amounted to 2.2.

`Cc1[nH]c2ccc(NC(=O)c3ccccc3Cl)cc2c1[C@@H](c1ccccn1)N1CCCCC1`: the “% Inhibition” value is reported as 7% and the Z score is recorded as -1.18.

With `CCc1ccc(-c2nccn2-c2ccc3[nH]nnc3c2)o1`, the “% Inhibition” value worked out at 6% and the Z score is reported as -0.74.
